Laboratory results taken from the supplement of paper PMC5499739.
Whole data set: some 16,000 sequences, median “Z-score” near -0.37, cut for the highest 2% near 3.2. The list shows a part of the results.

test system: RBM10 RRM1-ZnF (GST-tagged construct); assay: RNAcompete 7-mer binding Z-score; higher = stronger binding preference
Summary of the method: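 In 1 ml Hepes pH 7.8 buffer with KCl, NaCl, glycerol, DTT, BSA and glutathione Sepharose beads, GST-tagged RBM10 constructs (20 pmol) were incubated for 30 min at 4°C with 1.5 nmol of a designed pool of 241 399 RNAs up to 41 nt. Four 2-min washes at 4°C followed, and bound RNA was detected by microarray hybridisation. Heptamer motif enrichment was expressed as a one-sided Z-score across probes containing each motif.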

| Sequence | RNAcompete 7-mer binding Z-score |
| --- | --- |
| GCCUUGA | -0.672 |
| UCAAAAG | -0.49 |
| CAAAUAC | -0.513 |
| UUCGUUG | -0.162 |
| CAGUCGC | -0.288 |
| AGAAUUA | -0.197 |
| CCCCUGC | -0.363 |
| CCAUGUA | -0.568 |
| AAUAAAC | -0.552 |
| CUGCGCC | -0.626 |
| CUGGUGC | 0.14 |
| AUCGCCG | -0.685 |
| AAAACGC | -0.428 |
| UCAGGAU | 0.469 |
| UUAUGGC | -0.311 |
| AUAACAG | 0.157 |
| CACCGGC | -0.188 |
| ACAUACG | -0.145 |
| AUAAAUU | -0.639 |
| AAGUGCC | -0.496 |
| CUAGGAU | 0.573 |
| CACCUUU | -0.873 |
| AGAGGAG | 1.69 |

| Sequence | RNAcompete 7-mer binding Z-score |
| --- | --- |
| AUCACCA | -0.649 |
| CAGAAUA | -0.389 |
| GUAUUUA | -0.288 |
| GUUAAUU | -0.243 |
| UCCGUGC | -0.746 |
| CGUUAGA | -0.379 |
| GCCAAAA | -0.633 |
| AAUAUUC | -0.584 |
| CAGCCGG | -0.418 |
| CUCAGGA | -0.0902 |
| AAUUGAC | -0.35 |
| AGCCGUU | -0.808 |
| GUCCGUU | -0.431 |
| CGAUAUC | -0.646 |
| GUGUCCU | -0.415 |
| CUCGAGA | -0.37 |
| ACGGUCU | -0.62 |
| GACGUAA | -0.0447 |
| GCGUCAG | 0.199 |
| UCUUAGU | -0.672 |
| UACGGUG | 1.23 |
| GCACGGG | 2.27 |
| AAUAGGC | 0.192 |

| Sequence | RNAcompete 7-mer binding Z-score |
| --- | --- |
| GUGGAAU | 2.68 |
| GGGACUC | 0.842 |
| CGUUCUG | -0.73 |
| CUUUAAC | -0.854 |
| CUAAGAC | -0.649 |
| GCGAGAG | 1.17 |
| AACCUGA | -0.639 |
| UACUGAG | -0.0122 |
| AUACCAA | -0.617 |
| GUCAGGU | 1.34 |
| CACUCGU | -0.552 |
| UUUCACU | -0.737 |
| GAACGUC | -0.496 |
| UACUGUA | -0.542 |
| CUUGCAA | -0.824 |
| CAGGACC | -0.155 |
| CCCAUGU | -0.772 |
| AGACGGU | 0.569 |
| CUUAUUA | -0.714 |
| UUCGCUC | -0.704 |
| ACCAUUU | -0.993 |
| GGUAUAA | 1.23 |
| AUCGUUC | -0.711 |

| Sequence | RNAcompete 7-mer binding Z-score |
| --- | --- |
| GUCGGCU | -0.0252 |
| GGGCAGC | 1.32 |
| GGUUCCU | -0.256 |
| ACGCCUG | -0.581 |
| UGCCUUA | -0.798 |
| GGGGCCU | 0.807 |
| CUUGCCG | -0.974 |
| GGAGAAG | 3.36 |
| UCACUUC | -0.824 |
| AGGUGAG | 2.63 |
| GUUCACU | -0.613 |
| GAUUUCU | -0.681 |
| CUCGCAA | -0.698 |
| AUUUUAU | -0.711 |
| UAGAAUC | -0.376 |
| GAAUUUG | 0.137 |
| CCGUGGU | 0.361 |
| AUUACUG | -0.529 |
| ACAAUGU | -0.305 |
| GAGAGGG | 2.7 |
| GAUUUCA | -0.594 |
| GUAGAAU | 0.631 |
| CGAUAUG | -0.207 |

| Sequence | RNAcompete 7-mer binding Z-score |
| --- | --- |
| CAUUUAG | -0.72 |
| GGAGCCU | -0.0512 |
| UUGUCGA | -0.568 |
| UCACCAA | -0.704 |
| AUGGGAC | 2.09 |
| GUGCGCU | 0.368 |
| UUGAGGG | 3.4 |
| UUGAAUA | -0.35 |
| UCACGGG | 0.878 |
| UUGAUGA | 0.261 |
| CUAGAUC | -0.591 |
| UCAUACU | -0.733 |
| ACGCCGC | -0.633 |
| GUAUCGG | 0.592 |
| GUGCUCA | -0.152 |
| UAACGUC | -0.438 |
| CGAGAAA | -0.0122 |
| AAAUUUU | -0.691 |
| CUCGAUA | -0.688 |
| AGAACUG | -0.0414 |
| AAGAGCC | -0.409 |
| CGGGAGA | 1.24 |
| GGCCUGG | 0.378 |

| Sequence | RNAcompete 7-mer binding Z-score |
| --- | --- |
| GCUCUGA | -0.62 |
| GACAAGG | 2.5 |
| GGGUUAU | 2.6 |
| CACGUCU | -0.746 |
| CGGGUAA | 1.89 |
| UUACAAG | -0.243 |
| GAAGGAU | 3.32 |
| GGUGAGG | 4.5 |
| GUCCUUA | -0.711 |
| AUGCCGC | -0.646 |
| AAGUGAA | 0.927 |
| GAAGUUG | 1 |
| GCCCCCU | -0.353 |
| GCGUACC | -0.604 |
| ACUUCAU | -0.733 |
| GUUGAAU | 0.316 |
| CGGUGCC | -0.243 |
| CUUGCAC | -0.828 |
| UUAGGGU | 2.78 |
| AGGUUAG | 2.18 |
| AACACUU | -0.668 |
| ACAACAG | 0.00404 |
| GAUACGC | -0.275 |

| Sequence | RNAcompete 7-mer binding Z-score |
| --- | --- |
| AACUGCA | -0.399 |
| GUUAUCA | -0.272 |
| GAUGGGA | 3.76 |
| GCAGGGG | 3.32 |
| GACUUCC | -0.802 |
| AAAAAGA | -0.035 |
| AUUCCAG | -0.581 |
| GACAUAU | -0.451 |
| CUGUUGG | -0.11 |
| UAAUUGC | -0.519 |
| AAACCGA | -0.75 |
| UUCCAGU | -0.639 |
| UAAGGAG | 1.97 |
| UGAUUUA | -0.493 |
| GUGGGUA | 3.53 |
| CGAUCAA | -0.477 |
| CCUUUGA | -0.805 |
| GCUUUAU | -0.698 |
| AGUACAU | -0.305 |
| ACUUUUU | -0.785 |
| UGUGUUU | -0.165 |
| GUCGAUA | -0.292 |
| AACAAAA | -0.516 |

| Sequence | RNAcompete 7-mer binding Z-score |
| --- | --- |
| CGUUUUA | -0.87 |
| CAUGGGC | 1.08 |
| UACUCUG | -0.782 |
| ACCGCAC | -0.591 |
| CCGUUCC | -0.967 |
| GUACCAC | -0.301 |
| CUACCAU | -0.691 |
| UGAUAGU | -0.0772 |
| GUGGGCU | 2.33 |
| UCUAGGU | -0.126 |
| UUCCCCG | -0.337 |
| AUGUAAC | -0.227 |
| ACAUUAA | -0.487 |
| UGAGACU | -0.288 |
| CGCGUUU | -0.886 |
| GAUUGUA | 0.095 |
| GUACAGA | 0.186 |
| CACAAGC | -0.548 |
| AGGCAUA | 0.0398 |
| AAACUUG | -0.629 |
| AAGCUCG | -0.126 |
| AGGACGC | -0.022 |
| AACUGUA | -0.662 |
